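Following 48 hours of exposure in 96-well plates, responses at five concentrations were used to interpolate endpoints linearly. GI50: concentration for 50% inhibition of growth.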 Calls of active or inactive are those of the source. Rule as the data show it: active = GI50 up to about 1.1 µM and inactive = higher.
The molecules below were run on NCI-H322M (assay: growth of human tumour cells (NCI), 48 h).

SMILES	GI50
COc1ccc2nc3cc(Cl)ccc3c(Sc3ccc([N+](=O)[O-])cc3)c2c1	inactive: > 10 µM
Cc1cccc(NC2=NC(=O)C(CC(=O)Nc3ccccc3Cl)S2)c1 (stereo unspecified)	inactive: > 100 µM
COC(=O)C(C(=O)C(=O)Nc1nc2ccc([N+](=O)[O-])cc2s1)c1nc2ccc(Cl)cc2nc1O (stereo unspecified)	inactive: > 100 µM
COC1=CC(=O)C2=C(C1=O)[C@H]1CC[C@]3(C)[C@@H](O)CC[C@H]3[C@@H]1CC2	inactive: 16.7 µM
C/N=C(\N)c1ccc(NC(=N)c2ccc(C(=N)Nc3ccc(/C(N)=N/C)cc3)cc2)cc1	inactive: > 100 µM
Nc1ccc(Cn2ccc3c4c(N)nc(N)nc4ccc32)cc1	active: 0.0101 µM
CCCCC(=O)c1c(O)ccc2c(C)cc(=O)oc12	inactive: > 100 µM
CC(=O)C(O)N1C(=O)C=CC1=O (stereo unspecified)	inactive: 22 µM
CC1=C(OC2OC(CO)C(O)C(O)C2O)C(=O)C[C@H]2C1=CC[C@@H]1[C@@]2(C)C(=O)C[C@]2(C)[C@@H]([C@@](C)(O)C(=O)CCC(C)(C)O)[C@H](O)C[C@@]12C (stereo partly specified)	inactive: > 100 µM
O=C1C2=Cc3ccccc3OC2(O)Oc2cc(O)cc(O)c21 (stereo unspecified)	inactive: > 100 µM
C[N+]1(C)C/C(=C\c2ccncc2)C(=O)/C(=C/c2ccncc2)C1	inactive: > 100 µM
COC(=O)C1=CC2C(=O)OC1C1C(=O)NC(=O)C21 (stereo unspecified)	inactive: > 100 µM
CC1=NN(C(=O)c2ccc(Cl)cc2)C(=O)/C1=C/c1ccco1	inactive: > 100 µM
CCOc1cccc2c1N[S@@](=O)S2	inactive: > 100 µM
CCOC(=O)C1(C)CCC(C(C(=O)O)C(=O)O)CC1=O (stereo unspecified)	inactive: > 100 µM
COc1ccc(NC(C)c2ccncc2)cc1 (stereo unspecified)	inactive: 1.63 µM
CC1=C(C(=O)Nc2ccc([N+](=O)[O-])cc2)C(c2ccccc2F)C(C(=O)Nc2ccc([N+](=O)[O-])cc2)=C(C)N1	inactive: 18 µM
COc1cc(CNc2nc3c(N)cc(C(F)(F)F)cc3nc2-c2ccccc2)cc(OC)c1OC	inactive: > 10 µM
NC1CCCCC1.O=P(O)(O)C(CSc1ccccc1)P(=O)(O)O	inactive: > 100 µM
C=CC(c1ccccc1)[C@@]1(OC(C)=O)C(=O)C(=O)OC1C1COC(C)(C)O1 (stereo partly specified)	inactive: 16.4 µM
CCC(C)n1c(C)nc2c1C(=O)c1ccccc1C2=O (stereo unspecified)	inactive: 69.8 µM
CC1(C)Cc2c(c3ccccc3c3nc4c(nc23)c2c(c3ccccc34)OC(C)(C)C2)O1	inactive: > 100 µM
c1ccc(/N=C2\S/C(=N\C3CCCCC3)N(C3CCCCC3)\C2=N/c2ccccc2)cc1	inactive: > 100 µM

SMILES	GI50
c1ccc(/N=C2\c3ccccc3CN2c2ccccn2)nc1	inactive: > 100 µM
O=C1C=C(C2=CC(=O)C(=O)c3ccccc32)c2ccccc2C1=O	inactive: 25.9 µM
C/C=C1/C(=Cc2[nH]c(C=c3[nH]/c(=C/C4=NC(=O)C(CC)=C4C)c(C)c3CCC(=O)O)c(CCC(=O)O)c2C)NC(=O)C1C (stereo unspecified)	inactive: > 50 µM
Cn1c(=O)c2c(nc3n2CCC(=O)N3CCCCl)n(C)c1=O	inactive: > 100 µM
Nc1ccc(Oc2ccc(C3(c4ccc(Oc5ccc(N)cc5)cc4)C4CC5C6CC7CC5C3C(C7)C6C4)cc2)cc1	inactive: 1.22 µM
O=C(Sc1sc(=S)sc1SC(=O)c1ccccc1)c1ccccc1	inactive: 19.9 µM
CNn1c(C)n[nH]c1=O	inactive: > 100 µM
Cc1ccc(NC(=O)C(Cc2c[nH]c3ccccc23)NC(=O)Oc2ccccc2)cc1C (stereo unspecified)	inactive: 18.6 µM
O=C(O)C1CCCN(CCc2c[nH]c3ccccc23)C1 (stereo unspecified)	inactive: > 100 µM
C=C(C)C1CC(=O)C(C)=C(O)C1 (stereo unspecified)	inactive: > 100 µM
O=C(Nc1ccc(Cl)cc1)c1cccc([N+](=O)[O-])c1O	inactive: 4.28 µM
CC(=O)N(/N=C\c1ccc([N+](=O)[O-])cc1)c1ccccc1	inactive: 48.6 µM
O=C(C#Cc1cn(C2CC(O)C(CO)O2)c(=O)[nH]c1=O)c1ccccc1 (stereo unspecified)	inactive: > 100 µM
COC(=O)c1c2c(cc3c1CCC3)CCC2	inactive: > 100 µM
Cn1c(SCc2ccc([N+](=O)[O-])cc2)nnc1C12CC3CC(CC(C3)C1)C2	inactive: > 10 µM
CCOC(=O)C1(C/C=C/CBr)CCc2ccccc2C1=O (stereo unspecified)	inactive: 19.1 µM
OC(c1cccnc1Cl)c1nc2ccccc2c2ccnc(Cl)c12 (stereo unspecified)	inactive: 24.2 µM
c1cc(-c2ccc(-c3ccsc3)s2)cs1	inactive: > 100 µM
CC(=O)OC[C@@]12Cc3ccc(C)c(O)c3[C@]1(C)[C@@H](OC(C)=O)[C@]1(O)[C@H]([C@@H](OC(=O)c3ccccc3)[C@@H](C)[C@H]1OC(C)=O)[C@H]2OC(C)=O	inactive: > 50 µM
CCCN(CCC)c1c([N+](=O)[O-])cc(C(N)=O)cc1[N+](=O)[O-]	inactive: 60.3 µM
Cn1cnc([N+](=O)[O-])c1Sc1ccccn1	inactive: > 100 µM
CC1(C)N=C(N)N=C(N)N1c1cccc(OCc2cccc([N+](=O)[O-])c2)c1	inactive: 48.3 µM
Oc1ccc(O)c(Cc2ccccc2)c1	inactive: 28 µM

Source: ChEMBL document CHEMBL1201862, “PubChem BioAssay data set” (2004)
